What was measured:
[1] = test system: MM.1S cells, which express BCMA; experiment: In vitro killing experiment (proliferation inhibition), MM.1S; assay type: cell-based; conditions: result in words; FIGs. 8 and 9
Text: After MM.1S cells, which express BCMA, were co-cultured for 4 days with serially diluted vcMMAE (MCE)-conjugated anti-BCMA mAb (anti-BCMA-vcMMAE for short); vcMMAF-conjugated anti-BCMA mAb (anti-BCMA-vcMMAF for short); Linker-MMAE derivative 1, Linker-MMAE derivative 2, or CPD-conjugated anti-BCMA (referred to as anti-BCMA-Linker-MMAE derivative 1, anti-BCMA-Linker-MMAE derivative 2, anti-BCMA-CPD-D4, or anti-BCMA-CPD-D8, respectively, for short); CPD-conjugated control IgG1 protein (anti-KLH-CPD-D4 for short); and MMAF or MMAE-conjugated control IgG1 protein (referred to as anti-KLH-MMAF-D4 or anti-KLH-MMAE-D4, respectively, for short), the number of viable cells was determined using cell counting lite (Vazyme #DD1102-01), and proliferation inhibition rates (proliferation inhibition rate %, proliferation inhibition rate = 100 × (number of viable cells in untreated group - number of viable cells in treated group) / (number of viable cells in untreated group - number of viable cells in solution control group)%) were calculated to determine the in vitro killing activity of the candidate molecules.

[2] = test system: human squamous lung carcinoma cells (EBC-1); experiment: Subcutaneous xenograft tumor model, EBC-1 (in vivo evaluation 1); design: species or system Balb/c nude mice; conditions: EBC-1 xenograft; one dose via tail vein injection; ADC01 and ADC03 2 and 10 mg/kg, ADC02 and ADC04 10 mg/kg; compared to the control group; FIG. 1
Protocol: (§1) Female Balb/c nude mice, 6-8 weeks old, were subcutaneously injected in the dorsal neck region with 5 × 10^6 human squamous lung carcinoma cells (EBC-1) suspended in 100 µL of PBS. Once the mean tumor volume reached approximately 100 mm^3 (on day 11 post-inoculation), 48 nude mice were randomly divided into 8 groups of 6 according to tumor size, and each mouse was given one dose via tail vein injection: • group 1 was a blank control group; • group 2 was ADC07 (10 mg/kg); • group 3 was ADC01 (2 mg/kg); • group 4 was ADC01 (10 mg/kg); • group 5 was ADC02 (10 mg/kg); • group 6 was ADC03 (2 mg/kg); • group 7 was ADC03 (10 mg/kg); • group 8 was ADC04 (10 mg/kg).
(§2) The body weight and tumor volume of the experimental animals were measured twice weekly, and the survival status of the animals was monitored during the experiment.

[3] = test system: human lung adenocarcinoma cells (Calu-3); experiment: Subcutaneous xenograft tumor model, Calu-3 (in vivo evaluation 2); design: species or system Balb/c nude mice; conditions: Calu-3 xenograft; one dose via tail vein injection; ADC01 and ADC03 2 and 8 mg/kg, ADC02, ADC04 and ADC07 8 mg/kg; compared to the control group; FIG. 3
Protocol: as §1, with “human” for “human squamous”, “adenocarcinoma” for “carcinoma”, “(Calu-3)” for “(EBC-1)”, “4” for “11”, “(8” for “(10”
as §2

B1: anti-BCMA-005-Hu178-vcMMAE-D4: vcMMAE (MCE)-conjugated anti-BCMA mAb (conjugate)
heavy: EVQLVESGGGLVKPGGSLRLSCAASGFTFSNFDMAWVRQAPGKGLEWVASIVTRGDDTYYRDSVRGRFTISRDNAKNTQYLQMNSLRAEDTAVYYCARHDYGGPSGWFGYWGQGTLVTVSS[skipping human IgG1 constant region]
light: DIQMTQSPSSLSASVGDRVTITCRASQGFSNNLNWYQQKPGKTPKPLIYYTSNLHSGVPSRFSGSGSGTDYSLTISSLQPEDFATYYCQQDASFPPTFGQGTKLEIKRTVAAPSVFIFPPSDEQLKSGTASVVCLLNNFYPREAKVQWKVDNALQSGNSQESVTEQDSKDSTYSLSSTLTLSKADYEKHKVYACEVTHQGLSSPVTKSFNRGEC
For B1, the “proliferation-inhibiting effect on MM.1S cells” value (from here on “proliferation-inhibiting effect”) [1] was “significant proliferation-inhibiting effects”.

B2: anti-BCMA-005-Hu178-OMeMMAE-D4: Linker-MMAE derivative 2-conjugated anti-BCMA antibody (conjugate)
heavy: B1 heavy
light: B1 light
B2 was tested, and the “proliferation-inhibiting effect” value [1] was “significant proliferation-inhibiting effects”.

B3: anti-BCMA-005-Hu178-glucoseMMAE-NC-D4: Linker-MMAE derivative 1-conjugated anti-BCMA antibody (conjugate)
heavy: B1 heavy
light: B1 light
For B3, the “proliferation-inhibiting effect” value [1] was “significant proliferation-inhibiting effects”.

B4: anri-BCMA-005-Hu178-CPD-D8 (conjugate)
heavy: B1 heavy
light: B1 light
With B4 the “proliferation-inhibiting effect” value [1] was “significant proliferation-inhibiting effects”.

B5: anti-BCMA-005-Hu178-CPD-D4 (conjugate)
heavy: B1 heavy
light: B1 light
In the case of B5, the “proliferation-inhibiting effect” value [1] is reported as “significant proliferation-inhibiting effects”.

B6: anti-BCMA-005-Hu178-vcMMAF-D4: vcMMAF-conjugated anti-BCMA mAb (conjugate)
heavy: B1 heavy
light: B1 light
In the case of B6, the “proliferation-inhibiting effect” value [1] is reported as “significant proliferation-inhibiting effects”.

B7: ADC01 (conjugate)
heavy: QVQLVQSGAEVKKPGASVKVSCKASGYTFTTAGMQWVRQAPGQGLEWMGWINTHSGVPKYAEDFKGRVTISADTSTSTAYLQLSSLKSEDTAVYYCARSGFGSSYWYFDVWGQGTLVTVSSASTKGPSVFPLAPSSKSTSGGTAALGCLVKDYFPEPVTVSWNSGALTSGVHTFPAVLQSSGLYSLSSVVTVPSSSLGTQTYICNVNHKPSNTKVDKRV[skipping human IgG1 Fc]
light: DIQMTQSPSSLSASVGDRVTITCKASQDVSTAVAWYQQKPGKAPKLLIYSASYRYTGVPSRFSGSGSGTDFTLTISSLQPEDFAVYYCQQHYITPLTFGQGTKLEIKRTVAAPSVFIFPPSDEQLKSGTASVVCLLNNFYPREAKVQWKVDNALQSGNSQESVTEQDSKDSTYSLSSTLTLSKADYEKHKVYACEVTHQGLSSPVTKSFNRGEC
In the case of B7, the anti-tumor activity [2] is reported as “exhibited anti-tumor activity” and the anti-tumor activity [3] is reported as “exhibited anti-tumor activity”.

From patent EP4588489A1, “LINKER FOR ANTIBODY-DRUG CONJUGATE AND USE THEREOF” (priority 2022, dated 2024)
